Reference: the antibiotic and cytotoxicity screens of Wong et al. (2023)
The other results are listed elsewhere or left out.

Legend:
[1] = test system: HSkMC (human skeletal muscle cells); assay: cytotoxicity call (relative viability < 0.9); conditions: 10 µM
[2] = test system: HepG2; assay: cytotoxicity call (relative viability < 0.9); conditions: 10 µM
[3] = test system: S. aureus RN4220; assay: growth inhibition call (relative growth <= 0.2); conditions: 50 µM

COCC(=O)N1C[C@@H](C)[C@H](OC)CN(C)C(=O)c2cc(NC(=O)c3ccc(OC)cc3)ccc2OC[C@H]1C
inactive: cytotoxicity call [1] | cytotoxicity call [2] | growth inhibition call [3]

C[C@H](CO)N1C[C@H](C)[C@@H](CN(C)Cc2ccc(C(=O)O)cc2)OCCCC[C@H](C)Oc2ccc(NC(=O)C3CCCCC3)cc2C1=O
inactive: cytotoxicity call [1] | cytotoxicity call [2] | growth inhibition call [3]

COc1ccc(NC(=O)N(C)C[C@H]2Oc3ccc(NC(=O)C4CC4)cc3CC(=O)N([C@@H](C)CO)C[C@H]2C)cc1
inactive: cytotoxicity call [1] | cytotoxicity call [2] | growth inhibition call [3]

C[C@@H]1CCCCO[C@@H](CN(C)C(=O)Nc2ccc(F)cc2)[C@H](C)CN([C@H](C)CO)C(=O)c2cc(NC(=O)c3ccccc3)ccc2O1
inactive: cytotoxicity call [1] | cytotoxicity call [2] | growth inhibition call [3]

CCCCCCCCCCC(C(=O)O)C1(C(=O)O)CCC(=O)O1 (configuration not stated)
inactive: cytotoxicity call [1] | cytotoxicity call [2] | growth inhibition call [3]

CCN1CC(CCN2CCOCC2)C(c2ccccc2)(c2ccccc2)C1=O.Cl (configuration not stated)
inactive: cytotoxicity call [1] | cytotoxicity call [2] | growth inhibition call [3]

C[C@H](O)C#Cc1ccc2c(c1)O[C@H](CN(C)C(=O)C1CCCCC1)[C@@H](C)CN([C@H](C)CO)S2(=O)=O
inactive: cytotoxicity call [1] | cytotoxicity call [2] | growth inhibition call [3]

Cc1ccc(S(=O)(=O)Nc2ccc3c(c2)C(=O)N([C@H](C)CO)C[C@@H](C)[C@@H](CN(C)C(=O)Nc2c(C)noc2C)OCCCC[C@@H](C)O3)cc1
inactive: cytotoxicity call [1] | cytotoxicity call [2] | growth inhibition call [3]

C[C@@H]1CN([C@H](C)CO)C(=O)Cc2cc(NC(=O)Nc3ccccc3)ccc2O[C@@H]1CN(C)C(=O)Nc1cccc2ccccc12
inactive: cytotoxicity call [1] | cytotoxicity call [2] | growth inhibition call [3]
